{
  "source": "patent US20040186122A1",
  "about": "“Method of treating acute pain with a unitary dosage form comprising ibuprofin and oxycodone” (Forest Laboratories, Inc., priority 2002, published 2004)",
  "tested_on": "patients with moderate to severe pain following surgical removal of at least 2 ipsilateral bony impacted third molars",
  "test": "Study 1: single-dose clinical study, onset of analgesia after third molar surgery",
  "conditions": "single dose 5 mg",
  "data": [
    {"smiles": "COc1ccc2c3c1O[C@H]1C(=O)CC[C@@]4(O)[C@@H](C2)N(C)CC[C@]314.Cl", "note": "[oxycodone HCl, oxycodone hydrochloride]", "values": [
      {"measurement": "onset of analgesia", "value": "> 360", "unit": "min"}
    ]}
  ]
}
